Results from PubChem BioAssay AID1468 (National Center for Advancing Translational Sciences (NCATS), 2008).
Several values for one entry are separate records, joined by “and”; a condition that tells them apart may be missing. Equal entries are not always repeated. In all, about 280,000 compounds went through this assay and about 1,100 (0.39%) were called active. The shares of active, inactive and inconclusive entries below differ from those in the screen. The call rests on the fitted dose curve; in most records, active means well fitted inhibition curve with a large enough effect; inconclusive means small, poorly fitted or top-dose-only effect, or effect the other way; inactive means flat fitted curve, though single readings scatter. Potencies beside an inconclusive call are fits to weak or partial responses and may not hold up.
Further: nearly all actives have a fitted effect of over 55% in size.
On the % scale 0 is the no-effect control and ±100 the full control effect; potency means the concentration at half of the fitted maximal effect; tags describe the fitted curve by direction and shape.

Each compound was assayed against Microtubule-associated protein tau (Homo sapiens) (UniProt P10636) (assay: qHTS for Inhibitors of Tau Fibril Formation, Fluorescence Polarization). Conditions: K18 P301L tau heparin fibrillization, Alexa594 FP, 6 h; series mostly up to 57.7 µM; activity, negative = inhibition: at the top concentration.
UniProt P10636, sequence (P10636 whole entry, looked up, the tested form may be a part): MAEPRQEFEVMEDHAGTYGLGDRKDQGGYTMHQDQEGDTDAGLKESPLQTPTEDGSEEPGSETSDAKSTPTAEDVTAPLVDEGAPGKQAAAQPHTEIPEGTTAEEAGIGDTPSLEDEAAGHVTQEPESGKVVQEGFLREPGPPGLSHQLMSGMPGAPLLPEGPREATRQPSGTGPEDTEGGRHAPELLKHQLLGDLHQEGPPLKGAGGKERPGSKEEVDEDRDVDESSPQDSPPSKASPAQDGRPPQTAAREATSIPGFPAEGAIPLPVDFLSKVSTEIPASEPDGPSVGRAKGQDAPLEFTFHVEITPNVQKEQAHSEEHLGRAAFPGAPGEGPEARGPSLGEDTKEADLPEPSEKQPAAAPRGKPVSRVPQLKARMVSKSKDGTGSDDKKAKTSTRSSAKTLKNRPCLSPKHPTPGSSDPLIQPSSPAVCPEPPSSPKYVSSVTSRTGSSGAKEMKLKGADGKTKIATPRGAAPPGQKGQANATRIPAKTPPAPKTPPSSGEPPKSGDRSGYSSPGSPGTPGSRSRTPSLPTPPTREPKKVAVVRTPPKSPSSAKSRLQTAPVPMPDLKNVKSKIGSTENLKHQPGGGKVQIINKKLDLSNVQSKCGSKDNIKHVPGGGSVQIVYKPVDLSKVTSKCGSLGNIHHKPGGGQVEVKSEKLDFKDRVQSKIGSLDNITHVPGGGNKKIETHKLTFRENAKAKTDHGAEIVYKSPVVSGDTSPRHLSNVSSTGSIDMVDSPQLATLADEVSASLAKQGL
Summary of the method: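 Human K18 P301L fragment (15 uM unlabeled plus 0.24 uM Alexa 594-labeled) in 100 mM sodium acetate pH 7 with compound, aggregation induced by 20 uM heparin for 6 hr at 37 C. ThT (30 uM) added for 1 hr, then Alexa 594 FP read.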
O=C1NC(=O)N(Cc2ccccc2)C(=O)/C1=C/c1cnc(-c2ccccc2)nc1 was tested, and the Potency was inconclusive: 15.8 µM [inhibitor, partial curve, poor fit].
For CN1C(=O)C(Cc2ccsc2)C(=O)N(C)C1=O, the Potency was active: 31.6 µM.
CSc1ncc(/C=C2/C(=O)NC(=O)N(c3ccc(Cl)cc3)C2=O)cn1 was tested, and the Potency was inconclusive: 12.6 µM [inhibitor, partial curve].
COc1ccc(C)cc1NC(=O)c1cccn(Cc2ccccc2Cl)c1=O was tested, and the Potency was inconclusive: 14.1 µM [inhibitor, single point].
With CC(=O)C1CCC2C3CCC4CC(O)CCC4(C)C3CC(O)C12C (stereo not given) the “activity, negative = inhibition” value was inactive: 1.94%.
In the case of CC(C)[C@H]1C(=O)N2CCC[C@H]2[C@]2(O)O[C@](NC(=O)[C@@H]3C=C4c5cccc6[nH]cc(c56)C[C@H]4N(C)C3)(C(C)C)C(=O)N12, the Potency is reported as inconclusive: 22.4 µM [inhibitor, partial curve].
With N#CC(C#N)=Cc1ccc(O)c(O)c1 the Potency was inconclusive: 8.91 µM [inhibitor, partial curve, poor fit] and inconclusive: 2 µM [inhibitor, partial curve].
In the case of O=C1NC(=O)C(=CN2CCc3ccccc32)C(=O)N1, the Potency is reported as inconclusive: 12.6 µM [inhibitor, partial curve].
In the case of O=c1[nH]sc2cc(F)ccc12, the Potency is reported as active: 28.2 µM.
O=P(O)(O)C(O)c1ccc2ccccc2c1 (stereo not given) was tested, and the Potency was inconclusive: 0.1 µM [inhibitor, full curve, poor fit].
For COc1ccc(N2C(=O)/C(=C/C=C/c3ccccc3[N+](=O)[O-])C(=O)NC2=S)cc1, the Potency was inconclusive: 31.6 µM [inhibitor, single point].
In the case of CC(C)C[C@H]1C(=O)N2CCCC2[C@]2(O)O[C@](NC(=O)[C@@H]3C=C4c5cccc6[nH]cc(c56)CC4N(C)C3)(C(C)C)C(=O)N12 (stereo not given in full), the Potency is reported as inconclusive: 44.7 µM [inhibitor, single point] and inconclusive: 35.5 µM [inhibitor, partial curve].
For Cc1ccc(NC(=O)COc2ccc(-n3ccnc3)cc2)cc1Cl, the Potency was inconclusive: 3.55 µM [inhibitor, full curve, poor fit].
In the case of CCn1c(O)c(/C=N/NC(=O)c2ccccc2)c(=O)[nH]c1=S, the “activity, negative = inhibition” value is reported as inactive: 0.384%.
For C=CCSc1nc2c(c(-c3ccsc3)c1C#N)CN(C)CC2, the Potency was inconclusive: 39.8 µM [inhibitor, partial curve].
In the case of CCOC(=O)C(NS(=O)(=O)c1ccc(C)cc1)(C(F)(F)F)P(=O)(OCC(C)C)OCC(C)C (stereo not given), the Potency is reported as inconclusive: 28.2 µM [inhibitor, single point].
With CCOC(=O)c1ccc(N2C(=O)c3n[nH]c(-c4cccs4)c3C2c2ccc(C(C)(C)C)cc2)cc1 (stereo not given) the Potency was inconclusive: 39.8 µM [inhibitor, single point].
For CCc1ccc(CNC(=O)c2ccc3c(c2)N=C(C)c2cc(C)ccc2S3)cc1, the Potency was inconclusive: 39.8 µM [inhibitor, single point].
CN1C(=O)C(=Cc2ccc(N3CCCCC3)o2)C(=O)N(C)C1=S was tested, and the Potency was inconclusive: 0.126 µM [inhibitor, full curve, poor fit].
For Cc1ccc(N)c(C(=O)c2ccc(Br)cc2)c1, the “activity, negative = inhibition” value was inactive: 0.277%.
In the case of CC1COC2=C1C(=O)C(=O)c1c2ccc2c1CCCC2(C)C (stereo not given), the Potency is reported as inconclusive: 7.94 µM [inhibitor, partial curve] and inconclusive: 12.6 µM [inhibitor, partial curve].
With Cc1cc(C)cc(-n2c(O)c(C=Nc3ccc(N4CCOCC4)cc3)c(=O)[nH]c2=S)c1 the “activity, negative = inhibition” value was inactive: 6.39%.
In the case of NC(=O)c1cc(N2CC2)c([N+](=O)[O-])cc1[N+](=O)[O-], the Potency is reported as inconclusive: 3.55 µM [inhibitor, single point].
In the case of CCOP(=S)(OCC)Oc1cc(C)oc(=O)c1, the Potency is reported as inconclusive: 17.8 µM [inhibitor, single point].
In the case of Nc1c(C(=O)NCc2ccco2)c2nc3ccccc3nc2n1CCN1CCCCC1, the “activity, negative = inhibition” value is reported as inactive: -9.11%.
In the case of Cc1c(N=Cc2c(O)n(C3CCCCC3)c(=O)[nH]c2=O)c(=O)n(-c2ccccc2)n1C, the Potency is reported as inconclusive: 39.8 µM [inhibitor, single point].
In the case of CN1C(=O)NC(=O)/C(=C\c2ccc([N+](=O)[O-])o2)C1=O, the Potency is reported as inconclusive: 39.8 µM [inhibitor, single point].
With CCCCCSc1cc(OC)c(CCN)cc1OC the Potency was inconclusive: 44.7 µM [activator, single point].
For Cc1ccc2cc3c(ccc4ccccc43)c3c2c1CC3, the Potency was inconclusive: 28.2 µM [inhibitor, partial curve, poor fit].
In the case of O=C(COC(=O)c1ccc(O)cc1)Nc1ccc(Cl)cc1C(=O)c1ccccc1, the Potency is reported as inconclusive: 14.1 µM [inhibitor, partial curve].
In the case of CCCOC(=O)c1cc2c(cn1)[nH]c1ccccc12, the “activity, negative = inhibition” value is reported as inactive: -16.6%.
Clc1cccc(Cl)c1C1N2CCCN12 (stereo not given) was tested, and the “activity, negative = inhibition” value was inactive: -6.71%.
With CC1(C)C(=O)C=C[C@@]2(C)C1CC(O)[C@]1(C)C2CC[C@@]2(C)C(c3ccoc3)OC(=O)C3O[C@]312 (stereo not given in full) the “activity, negative = inhibition” value was inactive: -11.5%.
With c1ccc(Cn2ccnc2)cc1 the Potency was inconclusive: 44.7 µM [inhibitor, single point].
With O=C(CNC(=O)c1ccccc1)NCC(=O)OCC(=O)c1ccc([N+](=O)[O-])cc1 the Potency was inconclusive: 22.4 µM [inhibitor, partial curve, poor fit].
For CN1/C(=C\C=C2C(=O)NC(=O)NC2=O)C(C)(C)c2ccccc21, the “activity, negative = inhibition” value was inactive: -3.34%.
For Cc1ccccc1CN1CCN(c2ccc(Cl)cc2)CC1, the “activity, negative = inhibition” value was inactive: 13.2%.
For O[N+]1=CC=CCC1=S.On1ccccc1=S.[Zn], the Potency was inconclusive: 39.8 µM [inhibitor, single point].
Oc1cc2c(cc1O)[C@H]1c3ccccc3CN[C@H]1CC2 was tested, and the Potency was “inactive and inconclusive: 35.5 µM [inhibitor, single point]”.
In the case of Cn1c(O)c(C=NC2CCN(Cc3ccccc3)CC2)c(=O)n(C)c1=O, the Potency is reported as inconclusive: 15.8 µM [inhibitor, partial curve].
Cc1ccc(N2C(=O)NC(=O)/C(=C\C=C\c3ccco3)C2=O)cc1 was tested, and the Potency was active: 12.6 µM.
With CNC(=O)CSP(=S)(OC)OC the Potency was inconclusive: 22.4 µM [inhibitor, partial curve].
With CCCC/C(=N\O)c1c[nH]c2ccccc12 the Potency was inconclusive: 25.1 µM [activator, single point].
In the case of COc1ccc(Cl)cc1NC(=O)c1sc2nc3c(cc2c1N)N1CCC3CC1, the “activity, negative = inhibition” value is reported as inactive: 0.47%.
CN[C@@H](C)[C@H](O)c1ccccc1 was tested, and the Potency was inconclusive: 3.98 µM [inhibitor, partial curve].
In the case of CCc1ccc(-n2nc(C)c3c2NC(=O)CSC3c2ccc(OC)cc2OC)cc1 (stereo not given), the Potency is reported as inconclusive: 39.8 µM [inhibitor, single point].
For O=C1NC(=S)N(c2ccc(F)cc2)C(=O)/C1=C\c1ccoc1, the Potency was inconclusive: 35.5 µM [inhibitor, single point].
With COc1ccc(NC(c2ccccc2F)P(=O)(Oc2ccccc2)Oc2ccccc2)cc1 (stereo not given) the Potency was inconclusive: 17.8 µM [activator, partial curve, poor fit].
In the case of O=C(Nc1nc(-c2ccccc2)c(-c2ccccc2)s1)c1ccc(S(=O)(=O)N(CCCl)CCCl)cc1, the Potency is reported as inconclusive: 17.8 µM [inhibitor, partial curve].
In the case of COc1cc(CN=C(C)c2c(O)n(C)c(=O)n(C)c2=O)cc(OC)c1, the Potency is reported as inconclusive: 0.891 µM [inhibitor, single point].
With CC1CC(C)CN(S(=O)(=O)c2ccc3c(c2)oc(=O)n3CC(=O)NCc2cccnc2)C1 (stereo not given) the Potency was inconclusive: 3.16 µM [inhibitor, single point].
CCN(CC)P(=O)(c1n(CC)cc[n+]1CC)N(CC)CC was tested, and the Potency was inconclusive: 3.55 µM [inhibitor, single point].
With CCOc1cc(C=C2C(=O)NC(=O)NC2=O)ccc1OCC(=O)N1CCOCC1 the Potency was inconclusive: 8.91 µM [inhibitor, full curve, poor fit].
CN1CCc2nc3sc(C#N)c(N)c3c(-c3cccs3)c2C1 was tested, and the Potency was inconclusive: 25.1 µM [inhibitor, single point].
In the case of COCCCOc1ccnc(CS(=O)c2nc3ccccc3[nH]2)c1C (stereo not given), the Potency is reported as inconclusive: 14.1 µM [inhibitor, partial curve].
For CN1C(=O)C(=Cc2ccc(N(C)C)c([N+](=O)[O-])c2)C(=O)N(C)C1=O, the “activity, negative = inhibition” value was inactive: -9.81%.
In the case of CCOC(=O)C1(c2ccccc2)CCN(CC(=O)Nc2cccc3ccccc23)CC1, the “activity, negative = inhibition” value is reported as inactive: 3.12%.
Cc1cc(C=C2C(=O)NC(=O)NC2=O)c(C)n1-c1ccc2c(c1)OCO2 was tested, and the Potency was inconclusive: 44.7 µM [inhibitor, single point].
In the case of CC1=C(O)C(=O)[C@@H]2O[C@@H]2C1=O, the Potency is reported as active: 20 µM.
For Cn1c(=O)n(C)c2cc(N3CCCC3)c(NC(=O)Nc3ccccc3)cc21, the Potency was inconclusive: 11.2 µM [activator, partial curve, poor fit].
With Nc1cc(Cl)c2nonc2c1[N+](=O)[O-] the “activity, negative = inhibition” value was inactive: -10.6%.
In the case of O=C1NC(=O)C(=C/C=C/c2coc3ccc(Br)cc3c2=O)C(=O)N1, the Potency is reported as inconclusive: 17.8 µM [inhibitor, partial curve].
CC1C(=O)OC2C1CC[C@@]1(C)C=CC(=O)[C@@]3(C)O[C@@]213 (stereo not given in full) was tested, and the “activity, negative = inhibition” value was inactive: -3.23%.
With CC[N+](C)(CC)CCC[n+]1c(-c2ccccc2)c2cc(N)ccc2c2ccc(N)cc21 the Potency was active: 6.31 µM.
For CC(C)=CCCC1(C)C=Cc2c(O)c3c(c(CC=C(C)C)c2O1)OC12C(=CC4CC1C(C)(C)OC2(C/C=C(/C)C(=O)O)C4=O)C3=O (stereo not given), the Potency was inconclusive: 35.5 µM [inhibitor, single point].
